From publication PMC6908695
These are yes or no findings as the source states them, for the method shown. For some of these results: In cells and extracts the contact can be indirect. Some entries that bind do so weakly or less than the wild type.

Sequences of proteins named here, by UniProt entry; tags and fusion partners are left off. A change or cut given only in a name is not applied to a line headed by its entry. Residues count along the entry.
UniProt Q96NY8: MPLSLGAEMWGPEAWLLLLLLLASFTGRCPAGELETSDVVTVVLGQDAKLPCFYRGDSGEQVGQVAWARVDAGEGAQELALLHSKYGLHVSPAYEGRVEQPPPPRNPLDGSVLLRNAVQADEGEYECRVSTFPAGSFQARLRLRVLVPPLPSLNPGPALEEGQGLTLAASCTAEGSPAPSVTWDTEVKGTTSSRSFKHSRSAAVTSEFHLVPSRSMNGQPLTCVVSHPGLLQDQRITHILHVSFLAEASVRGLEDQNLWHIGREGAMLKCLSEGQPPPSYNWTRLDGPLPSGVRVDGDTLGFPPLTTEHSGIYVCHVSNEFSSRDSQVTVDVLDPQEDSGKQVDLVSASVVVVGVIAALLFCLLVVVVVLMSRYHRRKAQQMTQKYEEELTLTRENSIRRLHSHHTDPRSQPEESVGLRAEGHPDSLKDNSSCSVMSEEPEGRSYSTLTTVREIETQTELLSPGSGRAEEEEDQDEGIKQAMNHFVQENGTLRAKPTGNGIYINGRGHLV
endogenous nectin-4 (human (endogenous in SUM190-PT)): residues 32-510 of Q96NY8
UniProt P21860, residues 20-1342: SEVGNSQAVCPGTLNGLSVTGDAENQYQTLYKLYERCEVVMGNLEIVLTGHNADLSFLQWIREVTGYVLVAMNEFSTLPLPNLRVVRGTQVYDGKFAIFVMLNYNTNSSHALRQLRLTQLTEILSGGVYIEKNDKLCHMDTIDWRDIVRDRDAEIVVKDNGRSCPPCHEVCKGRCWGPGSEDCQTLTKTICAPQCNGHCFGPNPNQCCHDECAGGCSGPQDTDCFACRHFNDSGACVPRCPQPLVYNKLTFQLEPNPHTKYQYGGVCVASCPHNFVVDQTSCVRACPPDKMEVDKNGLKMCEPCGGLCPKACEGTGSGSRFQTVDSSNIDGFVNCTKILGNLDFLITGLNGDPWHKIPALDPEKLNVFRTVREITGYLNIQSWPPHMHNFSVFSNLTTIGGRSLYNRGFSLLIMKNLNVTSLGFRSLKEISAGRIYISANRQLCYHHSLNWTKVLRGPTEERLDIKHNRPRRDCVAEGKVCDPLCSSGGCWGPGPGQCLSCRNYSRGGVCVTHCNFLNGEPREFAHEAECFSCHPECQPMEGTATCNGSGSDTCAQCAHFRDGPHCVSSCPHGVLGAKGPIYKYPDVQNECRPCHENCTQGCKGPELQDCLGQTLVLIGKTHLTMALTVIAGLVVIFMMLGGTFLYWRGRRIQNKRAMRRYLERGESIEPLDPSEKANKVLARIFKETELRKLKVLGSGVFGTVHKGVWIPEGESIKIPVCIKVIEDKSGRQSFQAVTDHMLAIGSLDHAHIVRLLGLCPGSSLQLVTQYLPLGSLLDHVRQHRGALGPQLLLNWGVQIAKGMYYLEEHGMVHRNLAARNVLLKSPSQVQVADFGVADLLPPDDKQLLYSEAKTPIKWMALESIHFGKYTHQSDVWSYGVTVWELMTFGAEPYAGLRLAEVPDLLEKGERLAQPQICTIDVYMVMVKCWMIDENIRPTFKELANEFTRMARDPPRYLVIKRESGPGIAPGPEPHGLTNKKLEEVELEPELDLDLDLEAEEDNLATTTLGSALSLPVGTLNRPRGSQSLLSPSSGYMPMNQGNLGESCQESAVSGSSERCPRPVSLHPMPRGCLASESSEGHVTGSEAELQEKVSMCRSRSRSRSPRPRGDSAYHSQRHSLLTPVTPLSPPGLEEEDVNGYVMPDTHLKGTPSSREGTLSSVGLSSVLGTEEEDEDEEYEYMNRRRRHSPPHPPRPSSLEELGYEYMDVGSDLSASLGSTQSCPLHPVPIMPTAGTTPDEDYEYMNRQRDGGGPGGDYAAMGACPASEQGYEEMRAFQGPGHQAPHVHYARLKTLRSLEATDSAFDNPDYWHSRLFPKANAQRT
UniProt Q15303, residues 26-1308: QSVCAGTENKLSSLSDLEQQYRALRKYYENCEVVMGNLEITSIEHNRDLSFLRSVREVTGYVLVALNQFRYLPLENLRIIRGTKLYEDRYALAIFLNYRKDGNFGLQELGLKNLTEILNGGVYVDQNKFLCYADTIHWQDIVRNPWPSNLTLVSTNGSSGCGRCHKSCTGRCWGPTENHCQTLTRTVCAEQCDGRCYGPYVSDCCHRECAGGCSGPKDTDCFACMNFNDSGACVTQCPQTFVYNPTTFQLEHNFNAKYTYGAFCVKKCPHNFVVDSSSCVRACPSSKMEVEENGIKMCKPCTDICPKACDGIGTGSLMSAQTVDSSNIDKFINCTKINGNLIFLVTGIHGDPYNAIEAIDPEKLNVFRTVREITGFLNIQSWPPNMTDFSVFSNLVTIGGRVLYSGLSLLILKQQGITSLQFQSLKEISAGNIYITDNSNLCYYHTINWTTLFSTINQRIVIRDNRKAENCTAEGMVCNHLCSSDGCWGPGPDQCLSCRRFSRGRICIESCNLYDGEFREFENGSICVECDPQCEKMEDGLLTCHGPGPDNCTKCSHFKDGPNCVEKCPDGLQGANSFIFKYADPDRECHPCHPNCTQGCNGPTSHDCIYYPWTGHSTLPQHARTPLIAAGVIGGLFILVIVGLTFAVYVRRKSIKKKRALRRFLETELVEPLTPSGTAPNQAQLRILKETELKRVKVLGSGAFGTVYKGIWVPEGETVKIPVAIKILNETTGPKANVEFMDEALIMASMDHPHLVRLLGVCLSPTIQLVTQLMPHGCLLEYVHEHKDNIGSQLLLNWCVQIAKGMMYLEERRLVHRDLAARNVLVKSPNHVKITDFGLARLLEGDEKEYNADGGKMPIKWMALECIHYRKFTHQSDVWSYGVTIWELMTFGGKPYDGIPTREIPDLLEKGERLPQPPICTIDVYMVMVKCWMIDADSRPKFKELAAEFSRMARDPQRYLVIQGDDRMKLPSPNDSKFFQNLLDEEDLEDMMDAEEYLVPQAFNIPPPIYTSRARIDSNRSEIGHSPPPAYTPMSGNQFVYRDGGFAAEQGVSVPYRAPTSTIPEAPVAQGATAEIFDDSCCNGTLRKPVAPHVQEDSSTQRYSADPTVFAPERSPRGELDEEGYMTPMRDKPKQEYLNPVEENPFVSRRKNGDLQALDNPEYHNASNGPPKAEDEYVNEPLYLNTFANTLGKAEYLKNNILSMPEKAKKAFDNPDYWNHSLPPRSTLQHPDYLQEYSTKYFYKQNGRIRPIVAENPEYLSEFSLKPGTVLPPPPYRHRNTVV

What was measured:
[1] = biological target: FLAG-tagged nectin-4 (FLAG-Nectin-4) (UniProt Q96NY8); assay: co-IP; HEK293E cells co-transfected, detached with Accutase, cultured 1 h in suspension, lysed; FLAG-tagged nectin-4 construct immunoprecipitated with anti-FLAG mAb; Western blotting
[2] = biological target: GFP-tagged ErbB2 (ErbB2-GFP) (UniProt P04626); assay: pull-down; ErbB2-GFP captured from HEK293E lysate on anti-GFP pAb-conjugated beads and washed; incubated with 5 uM rec-FLAG-Nectin-4-Ig1/2/3 with or without 25 uM rec-FLAG-Nectin-4-Ig3 in lysis buffer, 20 ul, 4 °C, 16 h; washed with PBS, 0.02% Tween-20; Western blotting; both purified
[3] = biological target: GFP-tagged ErbB2 (ErbB2-GFP) (UniProt P04626); assay: co-IP; HEK293E cells co-transfected, detached with Accutase, cultured 1 h in suspension, lysed; GFP-tagged ErbB2 construct immunoprecipitated with anti-GFP pAb; Western blotting
[4] = biological target: endogenous nectin-4 (human (endogenous in SUM190-PT)) (UniProt Q96NY8); assay: co-IP; SUM190-PT cells detached with Accutase, cultured 1 h in suspension, lysed; endogenous nectin-4 immunoprecipitated with anti-nectin-4 pAb; Western blotting

| Substance | binding [1] | other results |
| --- | --- | --- |
| GFP-tagged ErbB2 (ErbB2-GFP) (from UniProt P04626 23-1255) (receptor) | binds |  |
| ErbB3-GFP (from UniProt P21860 20-1342) (receptor) | no binding |  |
| Recombinant FLAG-tagged extracellular region of nectin-4 (rec-FLAG-Nectin-4-Ig1/2/3) (from UniProt Q96NY8 32-349) (domain or fragment) |  | binding [2]: binds |
| FLAG-tagged nectin-4 (FLAG-Nectin-4) (from UniProt Q96NY8 32-510) |  | binding [3]: binds |
| endogenous ErbB2 (from UniProt P04626 23-1255) (receptor) |  | binding [4]: binds |

The next lines start with results.

| binding [1] | Substance | other results |
| --- | --- | --- |
| no binding | ErbB1-GFP (from UniProt P00533 25-1210) (receptor) |  |
| no binding | ErbB4-GFP (from UniProt Q15303 26-1308) (receptor) |  |
